Data reported in PubChem BioAssay AID1508623 (National Center for Advancing Translational Sciences (NCATS), 2021).
About 450 (0.94%) of roughly 48,000 compounds were called active. The inconclusive results got no clear call from the source; some entries with a clear call stand among them for comparison. The call rests on the fitted dose curve; in most records, active means well fitted inhibition curve with a large enough effect; inconclusive means small, poorly fitted or top-dose-only effect; inactive means no such curve, though single readings can be large or run the other way. Potencies of inconclusive entries are doubtful fits and often do not repeat.

Assay: Primary qHTS for Identification of Small Molecule Inhibitors of Huntingtin Promoter Activity; further: nearly all actives have a fitted effect of over 50% in size
Conditions: HEK293 HTT promoter firefly luciferase reporter (activity 0% = vehicle and -100% = no light), 24 h; activity change, negative = inhibition: at 57.5 µM (top of the series)
Method in brief: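 Luminescence was read after Dual-Glo reagent and a 10 min room-temperature incubation. Values were normalized to vehicle (0% activity) and zero RLU (-100% activity). Reporter HEK293 cells had been exposed to compounds (up to 57.5 uM final) for 24 h.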
Potency means the concentration at half of the fitted maximal effect; tags describe the fitted curve by direction and shape.

| SMILES | Potency | activity change, negative = inhibition |
| --- | --- | --- |
| O=C1c2[nH]nc(-c3ccc(Br)cc3)c2C(c2cccc(O)c2)N1c1ccc(Cl)cc1 (stereo not drawn) | inconclusive: 31.6 µM [inhibitor, single point] |  |
| COc1ccc(C2c3c(n(C)c4ccccc34)C(=O)N2CC(=O)Nc2ccccc2F)cc1 (stereo not drawn) | inconclusive: 8.91 µM [inhibitor, partial curve, poor fit] |  |
| COc1ccc(CCNC(=O)c2ccc3c(c2)N(Cc2cccc(Cl)c2)C(=O)CS3)cc1OC | inconclusive: 22.4 µM [inhibitor, partial curve, poor fit] |  |
| Cn1c(=O)c(F)c(Nc2ccc(I)cc2F)c2c(=O)n(C[C@@H](O)CO)cnc21 | inconclusive: 21.7 µM [inhibitor, partial curve, poor fit] |  |
| CCOc1ccc(NC(=O)Cn2c(=O)oc3cc(S(=O)(=O)N4CCCCCC4)ccc32)cc1 | inconclusive: 8.91 µM [inhibitor, partial curve, poor fit] |  |
| O=C(NCCOCCn1c(=O)oc2ccccc21)Nc1ccc(Cl)cc1 | inconclusive: 31.6 µM [inhibitor, single point] |  |
| Cc1cc(C)c(NC(=O)c2cc(S(=O)(=O)N3CCN(c4ccccc4F)CC3)ccc2F)c(C)c1 | inconclusive: 28.2 µM [inhibitor, single point] |  |
| C[C@H]1[C@H](O)O[C@@H]2O[C@@]3(C)CC[C@@H]4[C@H](C)CC[C@@H]1[C@@]24OO3 | inconclusive: 0.685 µM [inhibitor, full curve] |  |
| CCOc1ccc(OCC)c(NC(=O)CCC(=O)N2CCOc3ccccc32)c1 | inconclusive: 31.6 µM [inhibitor, single point] |  |
| CSc1ncc(C(=O)Nc2ccc(F)cc2F)c(-c2ccccc2)n1 | inactive |  |
| CCCC1=Nc2cc(C(=O)NCCc3ccc(OC)cc3OC)ccc2Sc2ccccc21 | inconclusive: 25.1 µM [inhibitor, single point] |  |
| O=C(Nc1nc2nc(-c3ccccc3)cc(=O)n2[nH]1)c1ccc(Cl)cc1 | inactive |  |
| CNC(=O)COc1ccc(NC(=O)CCn2nc(-c3ccc(C)cc3)c3ccccc3c2=O)cc1 | inconclusive: 22.4 µM [inhibitor, partial curve, poor fit] |  |
| O=C(c1ccc(CSc2nc3ccncc3n2Cc2cccc(F)c2)cc1)N1CCCCC1 | inconclusive: 17.8 µM [inhibitor, partial curve, poor fit] |  |
| CC1=C(c2ccc(C(C)C)cc2)S(=O)(=O)NC1=NCc1ccccc1Br | inconclusive: 17.8 µM [inhibitor, partial curve] |  |
| CCOC(=O)c1c(C)oc2ccc(N(C(=O)c3ccncc3)S(=O)(=O)c3ccc(Br)cc3)cc12 | inconclusive: 31.6 µM [inhibitor, single point] |  |
| CNC(=O)C1CCC(Cn2c(=O)c3sccc3n(CC(=O)Nc3ccc(C)c(F)c3)c2=O)CC1 (stereo not drawn) | inconclusive: 17.8 µM [inhibitor, partial curve, poor fit] |  |
| CCCCCCCCCC(=O)N[C@@H](Cc1c[nH]c2ccccc12)C(=O)N[C@H](CC(N)=O)C(=O)N[C@@H](CC(=O)O)C(=O)N[C@@H]1C(=O)NCC(=O)N[C@@H](CCCN)C(=O)N[C@@H](CC(=O)O)C(=O)N[C@H](C)C(=O)N[C@@H](CC(=O)O)C(=O)NCC(=O)N[C@H](CO)C(=O)N[C@@H]([C@@H](C)CC(=O)O)C(=O)N[C@@H](CC(=O)c2ccccc2N)C(=O)O[C@@H]1C | inactive |  |
| CCOc1ccc(CCNC(=O)Cn2ncc3c(=O)oc4ccc(C)cc4c32)cc1 | inactive |  |
| CCCCN1CC(c2nc3ccccc3n2CCCCOc2ccc(C)c(C)c2)CC1=O (stereo not drawn) | inconclusive: 31.6 µM [inhibitor, single point] |  |

| SMILES | Potency | activity change, negative = inhibition |
| --- | --- | --- |
| COc1ccc(OC)c(NS(=O)(=O)c2ccc3[nH]c4c(c3c2)CCCCC4)c1 | inconclusive: 39.8 µM [inhibitor, partial curve, poor fit] |  |
| CC(=O)N1CCCc2cc(S(=O)(=O)N(C)CC(=O)Nc3cccc(C)c3C)ccc21 | inconclusive: 17.8 µM [inhibitor, single point] |  |
| O=C1c2[nH]nc(-c3ccccc3O)c2C(c2cccc(Cl)c2)N1Cc1cccnc1 (stereo not drawn) | inconclusive: 31.6 µM [inhibitor, partial curve, poor fit] |  |
| CCOC(=O)c1cc(-c2ccc(C)cc2)n(CCC(=O)Nc2ccc(C(C)C)cc2)c1C | inconclusive: 25.1 µM [inhibitor, partial curve, poor fit] |  |
| Cc1cccc(NC(=O)CS(=O)(=O)c2nc(-c3ccccc3)cn2-c2cccc(Cl)c2)c1C | inconclusive: 35.5 µM [inhibitor, single point] |  |
| COc1cccc(-c2nc(CS(=O)(=O)CC(=O)Nc3c(C)cc(C)cc3C)c(C)o2)c1 | inconclusive: 22.4 µM [inhibitor, single point] |  |
| Cc1cc(NC(=O)N(C)CCc2c(C)nn(C)c2C)ccc1Br | inactive |  |
| N=c1n(CCN2CCCCC2)c2ccccc2n1CC(O)COc1ccc(Cl)cc1Cl (stereo not drawn) | inconclusive: 31.6 µM [inhibitor, single point] |  |
| COc1ccc(Cn2c(SCc3ccc(C(=O)NCc4cccs4)cc3)nc3cccnc32)cc1 | inconclusive: 39.8 µM [inhibitor, single point] |  |
| Fc1ccc(Cn2c(-c3cccc(Br)c3)nc3ccccc32)cc1 | inconclusive: 39.8 µM [inhibitor, single point] |  |
| O=C(NCCc1nc2ccccc2n1CCCOc1ccc(Cl)cc1)C1CCCCC1 | inconclusive: 39.8 µM [inhibitor, single point] |  |
| COc1ccc(C(=O)Nc2noc3ccccc23)cc1 | inactive |  |
| COc1ccc(Cl)cc1NC(=O)CSc1nc(-c2ccco2)cc(C(F)(F)F)n1 | inconclusive: 20 µM [inhibitor, single point] |  |
| CCC(C)(C)c1ccc(CC(C)CN2C[C@@H](C)O[C@@H](C)C2)cc1 (stereo partly drawn) | inactive |  |
| CCCCN(c1ccccc1)S(=O)(=O)c1ccc2c(c1)CC(C)N2C(=O)C1CC1 (stereo not drawn) | inconclusive: 28.2 µM [inhibitor, single point] |  |
| CCOC(=O)C1=C(CN2CCN(c3cc(C)ccc3C)CC2)NC(=O)NC1c1ccc(Cl)cc1 (stereo not drawn) | inconclusive: 20 µM [inhibitor, partial curve, poor fit] |  |
| Cc1nc2sc(C(N)=O)c(N)c2c(-c2ccc(Br)cc2)c1C(=O)Nc1ccc(Cl)cc1 | inconclusive: 28.2 µM [inhibitor, single point] |  |
| Cc1cccc(NC(=O)c2ccc(-c3nc(CSc4ccccc4)c(C)o3)cc2)c1C | inconclusive: 25.1 µM [inhibitor, partial curve] |  |
| COc1ccc(C(=O)Nc2ccc(-c3nc4ccccc4s3)cc2C)cc1Cl | inactive |  |
| NC(=O)Cn1c(=O)n(CCCCCC(=O)NCc2ccccc2)c(=O)c2sccc21 | inactive |  |

| SMILES | Potency | activity change, negative = inhibition |
| --- | --- | --- |
| COc1ccc(-n2c(=O)c3ccccc3n(Cc3ccccc3C)c2=O)c(OC)c1 | inconclusive: 31.6 µM [inhibitor, single point] |  |
| CC(=O)Nc1ccc(NS(=O)(=O)c2c(C)nc3sccn3c2=O)cc1 | inactive |  |
| CCOc1ccc(CNC(=O)C2CCCN(S(=O)(=O)N(C)c3ccc(F)cc3)C2)cc1OC (stereo not drawn) | inconclusive: 39.8 µM [inhibitor, single point] |  |
| O=C(NC1CC1)c1cccc(-c2ccc3c(NC(=O)C4CC4)n[nH]c3c2)c1 | inconclusive: 15.3 µM [inhibitor, single point] |  |
| CCOC(=O)c1cnc2c(ccc3ccccc32)c1Nc1ccc(Cl)cc1 |  | inactive: -18.2% [at 11.5 µM] |
| C[N+]1(CC2COC(c3ccccc3)(C3CCCCC3)O2)CCCCC1 (stereo not drawn) | inactive |  |
| COc1ccc(S(=O)(=O)NCC(c2ccco2)N2CCN(c3ccc(F)cc3)CC2)cc1C (stereo not drawn) | inconclusive: 22.4 µM [inhibitor, partial curve, poor fit] |  |
| CCS(=O)(=O)N1CCc2cc(C(=O)NCCc3ccc(OC)cc3)ccc21 | inactive |  |
| CC1CCN(S(=O)(=O)c2nnc(NC(=O)c3cccc(Br)c3)s2)CC1 | inconclusive: 39.8 µM [inhibitor, single point] |  |
| Cc1ccc(NC(=O)Cn2c(=O)n(CCC(=O)NCc3ccccc3Cl)c(=O)c3ccccc32)cc1 | inconclusive: 39.8 µM [inhibitor, single point] |  |
| COc1ccc(Cl)cc1NC(=O)CSc1cn(CC(=O)N2CCCCCC2)c2ccccc12 | inconclusive: 25.1 µM [inhibitor, single point] |  |
| Cc1cccc(N2CCN(C(=O)Cn3nc(Cc4cccnc4)c4ccccc4c3=O)CC2)c1C | inconclusive: 35.5 µM [inhibitor, single point] |  |
| Clc1cccc(-n2ncc3c(NCCCn4ccnc4)ncnc32)c1 | inactive |  |
| COc1ccc(NC(=O)Cn2c(=O)ccc3cc(S(=O)(=O)N4CCCC4)ccc32)cc1Cl | inconclusive: 39.8 µM [inhibitor, single point] |  |
| O=C(Nc1ccc(Cl)c(C(F)(F)F)c1)C1CCN(S(=O)(=O)c2cccc3nonc23)CC1 | inconclusive: 25.1 µM [inhibitor, single point] |  |
| CCCCn1c(NCc2ccc(N(C)C)cc2)nc2ccccc21 | inconclusive: 15.8 µM [inhibitor, partial curve] |  |
| COc1ccccc1Nc1nn2c(=O)c3ccc(C(=O)NCCC4=CCCCC4)cc3nc2s1 | active: 10 µM |  |
| Cc1ccc(OCc2ccc(-c3nc(C#N)c(NCc4ccccc4Cl)o3)o2)cc1 | inconclusive: 39.8 µM [inhibitor, single point] |  |
